Experimental findings from EP4763863A1 (Carbiogene Therapeutics Co., Ltd., dated 2026) are described below.

In general, Kd refers to the constant that tells how readily two partners part at equilibrium. A low value points to a tighter complex.

For the assay, the target named is T1, BCMA (CD269, TNFRSF17) expressed on cells (human, UniProt Q02223 1-184).
T1 construct: whole, on cells; also called BCMA antigen molecule expressed on tumor cells; K562-BCMA cells
T1 sequence (looked up): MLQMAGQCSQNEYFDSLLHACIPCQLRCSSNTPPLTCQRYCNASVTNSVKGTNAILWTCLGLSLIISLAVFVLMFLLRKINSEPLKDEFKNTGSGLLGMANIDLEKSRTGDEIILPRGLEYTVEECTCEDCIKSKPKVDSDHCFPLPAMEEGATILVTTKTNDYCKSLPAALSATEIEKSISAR
In words: flow cytometry (MFI) of FITC-BCMA-VHH-54-hFc titrated on K562-BCMA cells; KD from a double-reciprocal linear regression. In general terms: Flow cytometry measures light scatter and fluorescence of single cells or particles in a stream.

B1: FITC-BCMA-VHH-54-hFc (Fc fusion)
chain: QLQLVESGGGLVQPGGSLKLSCAASGFTFKDYAMNWYRQAPGKEREWVALISSDGGTTEYEQSVKGRFTISRDNAKNTVYLQMNSVKPEDTAVYRCNKFGAGSYNYWGQGTLVTVSS[human IgG1 Fc with changes not spelt out]
modifications: FITC label (Pierce NHS-Fluorescein Antibody Labeling Kit); labelled residues not stated
notes: Anti-BCMA alpaca single-domain antibody fused at its C-terminus to human IgG1 Fc; Expressed in HEK293 cells, purified on Protein A and labelled with FITC for flow cytometry; also called FITC-labeled BCMA-VHH-54 antibody; BCMA-FITC
As for B1, the Kd was found to be 26.9 nM.
